Test results as given in PubChem BioAssay (NCI).
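Exposure lasted 48 hours, with cells grown in 96-well plates and compounds tested at five concentrations. GI50 is the concentration that inhibits growth by half. TGI denotes the concentration required for complete inhibition of growth.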

Tested on: NCI-H322M lung
Experiment: inhibition of tumour cell growth, NCI panel, 48 h

Cn1ccnc1C(=O)/C=C/c1ccc(CNC(=O)c2ccc(S(F)(F)(F)(F)F)cc2)cc1
GI50: 3.22 µM
TGI: 6.67 µM
